Data published in publication PMC4336329 (PLoS ONE, 2015).
Screen size: about 310,000 compounds; about 14,000 (4.5%) showed an effect of 50% or more. The effect is printed as a negative number. This is one part of the list.

Molecular target: human ether-à-go-go-related gene (hERG) potassium channel (human, UniProt Q12809)
Assay: primary screen, population patch clamp on CHO cells stably expressing hERG
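Also: peak tail current of the secondary pulse compared with the same well before compound.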

human ether-à-go-go-related gene (hERG) potassium channel, sequence (Q12809 whole entry, looked up): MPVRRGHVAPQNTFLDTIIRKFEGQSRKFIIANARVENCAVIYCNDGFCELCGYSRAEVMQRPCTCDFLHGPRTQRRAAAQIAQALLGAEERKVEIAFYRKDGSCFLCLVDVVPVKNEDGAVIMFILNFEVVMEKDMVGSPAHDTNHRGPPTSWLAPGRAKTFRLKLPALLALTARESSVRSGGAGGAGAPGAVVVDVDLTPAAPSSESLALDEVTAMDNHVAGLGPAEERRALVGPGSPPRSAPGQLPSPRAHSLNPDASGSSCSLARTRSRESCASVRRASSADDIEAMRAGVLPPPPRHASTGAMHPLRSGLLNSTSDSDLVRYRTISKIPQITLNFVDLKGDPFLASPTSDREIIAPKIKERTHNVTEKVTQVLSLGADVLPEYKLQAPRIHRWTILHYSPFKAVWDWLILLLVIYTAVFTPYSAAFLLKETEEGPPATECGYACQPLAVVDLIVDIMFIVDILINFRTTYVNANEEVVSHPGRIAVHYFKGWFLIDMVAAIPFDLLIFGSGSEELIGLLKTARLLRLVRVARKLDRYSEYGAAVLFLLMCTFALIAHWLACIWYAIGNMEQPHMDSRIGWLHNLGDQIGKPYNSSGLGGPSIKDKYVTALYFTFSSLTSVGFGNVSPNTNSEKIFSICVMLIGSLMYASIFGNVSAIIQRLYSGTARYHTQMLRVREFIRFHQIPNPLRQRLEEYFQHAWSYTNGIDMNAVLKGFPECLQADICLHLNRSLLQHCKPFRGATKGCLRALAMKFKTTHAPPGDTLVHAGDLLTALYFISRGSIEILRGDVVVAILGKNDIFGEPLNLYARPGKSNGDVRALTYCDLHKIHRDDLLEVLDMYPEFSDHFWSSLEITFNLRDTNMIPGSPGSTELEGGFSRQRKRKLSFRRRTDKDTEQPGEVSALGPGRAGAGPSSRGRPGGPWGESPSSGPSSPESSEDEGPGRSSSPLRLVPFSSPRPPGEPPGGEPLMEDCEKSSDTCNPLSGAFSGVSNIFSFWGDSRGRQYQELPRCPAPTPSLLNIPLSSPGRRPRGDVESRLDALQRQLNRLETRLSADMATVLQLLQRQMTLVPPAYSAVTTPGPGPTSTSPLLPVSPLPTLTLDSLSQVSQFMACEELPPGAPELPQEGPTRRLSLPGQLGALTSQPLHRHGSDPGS

Compound	hERG current change (%, negative = inhibition) at 10uM [%]
O=C(N/N=C/c1cn(-c2cccs2)nc1-c1ccccc1)c1ccc(O)cc1	13.8
Cc1c(C(=O)NCCSCc2ccc(F)cc2)cnn1-c1ccc(Cl)cc1	-34.6
COc1cccc(/C=C/C(=O)c2cccc([N+](=O)[O-])c2)c1OC	-6.85
CCOc1ccc(CNS(=O)(=O)c2ccc(-c3ccc(=O)[nH]n3)o2)cc1OC	18.5
COc1cc(/C=C/C(=O)NC(C)C)ccc1OCc1ccccc1	10.5
O=c1[nH]cnc2scc(-c3cccs3)c12	9.55
CCN(CC)S(=O)(=O)c1cccc(NC(=O)COC(=O)CCc2nc3ccccc3s2)c1	3.13
CCOC(=O)/C(C#N)=N/Nc1c(S(=O)(=O)Cc2ccco2)csc1C(=O)OC	11.4
COc1ccc(Cl)cc1NC(=O)CSc1nncn1-c1cccnc1	-20.7
Cn1c(=O)[nH]c(=O)c2c1nc(SCC(=O)[O-])n2CCOc1ccccc1.[Na+]	20.3
CC1=NC(C)(C)Cc2c(C)cccc21.Cl	-3.65
COc1ccc(CCNC(=O)COc2ccc(S(=O)(=O)NC(C)C)cc2Cl)cc1OC	-0.335
C=C(C)CSc1nnc([C@@H]2CCCN2)o1.Cl	17.7
COc1ccccc1NS(=O)(=O)c1ccc(C(=O)NCCCN2CCCC2=O)cc1	-0.345
Cc1c(NC(=O)Cc2ccccc2)cccc1C(=O)NN1C(=O)c2ccccc2C1=O	-10.2
COc1ccc(-n2nc(C(=O)NCC(=O)NCC3CCCO3)c3ccccc3c2=O)cc1 (stereo not drawn)	5.92
CC1CCCN(C(=O)CCS(=O)(=O)Cc2ccccc2)C1 (stereo not drawn)	11.9
CCn1c(CCCOc2ccc(Cl)cc2Cl)nnc1SCC(=O)Nc1cc(F)ccc1C	-13.1
CC(=O)NCCC(=O)Nc1nc2c(ccc3ccccc32)s1	7.52
O=C(OCC(=O)c1c[nH]c2ccccc12)c1cccc(S(=O)(=O)N2CCCCCC2)c1	-4.9
C[C@H](NC(=O)N1CCn2c1nc1ccccc12)C(=O)NC1CC1	19.5
COc1ccccc1NS(=O)(=O)c1ccc(O)c(NC(=S)NCC2CCCO2)c1 (stereo not drawn)	7
CCCC(c1nnnn1C1CCCC1)N1CCN(C(=O)c2ccco2)CC1.Cl (stereo not drawn)	-32.9
O=C(Nc1ccc(C(F)(F)F)cc1)C1CCN(S(=O)(=O)c2ccc(N3CCCC3=O)cc2)CC1	18
